# Values joined by “and” are separate entries in the source; they are usually repeats but may differ in a detail not shown here. Equal entries are not always repeated. Structures can show the parent of a compound that is named as a salt. In all, about 5,800 compounds went through this assay and about 620 (11%) showed activity.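 Rule for the calls: active = score above a cut-off or among the top three wells of a plate; in these data no inactive exceeds 0.85.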 The entries are a selection whose mix differs from that of the whole data set.
# Tested on: primary human hepatic stellate cells (donor 1)
# Experiment: scaled lipid accumulation score (0 = DMSO-like, 1 = nortriptyline-like); higher = stronger HSC inactivation (lipid re-accumulation), active = hit call of the paper
# Settings: 48 h
# [1] = library stock concentration: 1 mM
# [2] = library stock concentration: 3.33 mM
# [3] = library stock concentration: 10 mM
# [4] = library stock concentration: 80 uM
# [5] = library stock concentration: 400 uM
# [6] = library stock concentration: 2 mM
compound,measurement,setting,value
CC(C)=CCC/C(C)=C/CC/C(C)=C/CSc1ccccc1C(N)=O [Farnesyl Thiosalicylic Acid Amide],scaled lipid accumulation score,[1],inactive: ≤ 0
COc1cc(Nc2ncc3c(n2)-c2ccc(Cl)cc2C(c2c(F)cccc2OC)=NC3)ccc1C(=O)O [Alisertib (MLN8237)],scaled lipid accumulation score,[2],inactive: ≤ 0
same,scaled lipid accumulation score,[3],inactive: ≤ 0
COc1cc(Nc2ncc3c(n2)-c2ccc(Cl)cc2C(c2c(F)cccc2OC)=NC3)ccc1C(=O)O [Alisertib],scaled lipid accumulation score,[4],inactive: ≤ 0
same,scaled lipid accumulation score,[5],inactive: ≤ 0
same,scaled lipid accumulation score,[6],inactive: ≤ 0
same,scaled lipid accumulation score,[3],inactive: ≤ 0
OC(CCN1CCCCC1)(c1ccccc1)c1ccccc1 [Pridinol methanesulfonate],scaled lipid accumulation score,[3],inactive: ≤ -0.027
OC(CCN1CCCCC1)(c1ccccc1)c1ccccc1 [Pridinol methanesulfonate salt],scaled lipid accumulation score,,inactive: 0.044
C=CCNc1ncnc2ccc(Br)cc12,scaled lipid accumulation score,[3],inactive: ≤ 0
OCC(CO)N[C@H]1C[C@](O)(CO)[C@@H](O)[C@H](O)[C@H]1O [Voglibose],scaled lipid accumulation score,[2],inactive: ≤ 0
same,scaled lipid accumulation score,[3],inactive: 0.073 and inactive: 0.011
N[C@@H](CO)c1ccccc1 [(R)-(-)-2-Phenylglycinol],scaled lipid accumulation score,[1],inactive: ≤ 0
Cc1ccc([C@@H]2O[C@H](CO)[C@@H](O)[C@H](O)[C@H]2O)cc1Cc1ccc(-c2ccc(F)cc2)s1 [Canagliflozin],scaled lipid accumulation score,[2],inactive: ≤ 0
same,scaled lipid accumulation score,[3],inactive: ≤ 0
CC(C)(C)c1cc(C(C)(C)C)c(NC(=O)c2c[nH]c3ccccc3c2=O)cc1O [Ivacaftor (VX-770)],scaled lipid accumulation score,[2],inactive: 0.075
same,scaled lipid accumulation score,[3],inactive: ≤ 0
Cc1ccc(C(=O)Nc2cccc(C(F)(F)F)c2)cc1-c1ccc2nc(NCCN3CCOCC3)ncc2c1,scaled lipid accumulation score,[3],active: 1.34
CC(=O)N(CC(O)CO)c1c(I)c(C(=O)NCCO)c(I)c(C(=O)NCC(O)CO)c1I (configuration not stated),scaled lipid accumulation score,[3],inactive: ≤ 0
CN1CCN(CC(=O)N2c3ccccc3C(=O)Nc3cccnc32)CC1 [Pirenzepine 2HCl],scaled lipid accumulation score,library stock concentration: 5.7 mM,inactive: ≤ -0.006
CN1CCN(CC(=O)N2c3ccccc3C(=O)Nc3cccnc32)CC1 [Pirenzepine dihydrochloride],scaled lipid accumulation score,,inactive: ≤ 0
same,scaled lipid accumulation score,[3],inactive: ≤ 0
CN1CCN(CC(=O)N2c3ccccc3C(=O)Nc3cccnc32)CC1 [Pirenzepine hydrochloride],scaled lipid accumulation score,library stock concentration: 4.7 mM,inactive: ≤ 0
same,scaled lipid accumulation score,[3],inactive: ≤ 0
CN(CCCCCCCCCCN(C)C(=O)Oc1cccc([N+](C)(C)C)c1)C(=O)Oc1cccc([N+](C)(C)C)c1 [Demecarium bromide],scaled lipid accumulation score,,inactive: ≤ 0
CC(=O)N(CC(O)CO)c1c(I)c(C(=O)NCC(O)CO)c(I)c(C(=O)NCC(O)CO)c1I (configuration not stated) [Iohexol],scaled lipid accumulation score,,inactive: ≤ 0
COC(=O)Nc1nc2cc(Sc3ccccc3)ccc2[nH]1 [Fenbendazole],scaled lipid accumulation score,,inactive: 0.055
same,scaled lipid accumulation score,[2],inactive: 0.145
same,scaled lipid accumulation score,library stock concentration: 6.7 mM,inactive: 0.402 and inactive: 0.539
same,scaled lipid accumulation score,[3],inactive: 0.19 and inactive: 0.069
CCCCC/C=C\C[C@@H](O)/C=C/C=C\C/C=C\CCCC(=O)O,scaled lipid accumulation score,library stock concentration: 100 uM,inactive: ≤ -0.021
COCC(=O)NC/C=C/c1ccc2ncnc(Nc3ccc(Oc4ccc(C)nc4)c(C)c3)c2c1,scaled lipid accumulation score,[4],inactive: ≤ 0
same,scaled lipid accumulation score,[5],inactive: ≤ 0 and inactive: ≤ -0.005
same,scaled lipid accumulation score,[6],inactive: ≤ 0 and inactive: ≤ -0.005
same,scaled lipid accumulation score,[3],inactive: 0.108
Cn1c(=O)c2c(ncn2CC2OCCO2)n(C)c1=O [Doxofylline],scaled lipid accumulation score,[2],inactive: ≤ 0
same,scaled lipid accumulation score,library stock concentration: 7.5 mM,inactive: 0.036
same,scaled lipid accumulation score,[3],inactive: ≤ -0.001
CCN(CC)CCCCNc1ncc2cc(-c3cc(OC)cc(OC)c3)c(NC(=O)NC(C)(C)C)nc2n1,scaled lipid accumulation score,[6],active: 1.12
same,scaled lipid accumulation score,[3],active: 1.22
C=CC(=O)Nc1cccc(Sc2nc(Nc3ccc(N4CCN(C)CC4)cc3)ncc2Cl)c1,scaled lipid accumulation score,[2],inactive: ≤ 0
same,scaled lipid accumulation score,[3],inactive: 0.466
CCCCNc1ncc(C(=O)NCc2ccc(-n3ccnc3)cc2)c(NC2CCC(O)CC2)n1 (configuration not stated),scaled lipid accumulation score,[2],inactive: 0.129
same,scaled lipid accumulation score,[3],inactive: 0.435
CC(CN(C)C)CN1c2ccccc2Sc2ccccc21.O=C(O)C(O)C(O)C(=O)O (configuration not stated) [Trimeprazine tartrate],scaled lipid accumulation score,library stock concentration: 4.5 mM,active: 0.915
CCOC(=O)[C@H]1O[C@@H]1C(=O)N[C@@H](CC(C)C)C(=O)NCCC(C)C [Aloxistatin],scaled lipid accumulation score,[2],inactive: ≤ -0.009
same,scaled lipid accumulation score,[3],inactive: ≤ 0
NC(Cn1ccc(=O)c(O)c1)C(=O)O (configuration not stated) [Mimosine],scaled lipid accumulation score,,inactive: ≤ 0
same,scaled lipid accumulation score,[3],inactive: ≤ 0
"c(c1N)(C(=O)\N=C(\N)/N)nc(c(N2CCCCCC2)n1)Cl [5-(N,N-hexamethylene)amiloride]",scaled lipid accumulation score,[3],active: 1.13
CC(=O)OC[C@H]1O[C@@H]([S-])[C@H](OC(C)=O)[C@@H](OC(C)=O)[C@@H]1OC(C)=O.CCP(CC)CC.[Au+] [Auranofin],scaled lipid accumulation score,[3],inactive: 0.439
CNCc1cn(C2CCN(CCC(C)CC(C)(C)C)CC2)nn1 (configuration not stated),scaled lipid accumulation score,[3],active: 1.05
COc1cc(Nc2c(C#N)cnc3cc(OCCCN4CCN(C)CC4)c(OC)cc23)c(Cl)cc1Cl [Bosutinib (SKI-606) (0.4 mM)],scaled lipid accumulation score,[5],inactive: ≤ -0.005
COc1cc(Nc2c(C#N)cnc3cc(OCCCN4CCN(C)CC4)c(OC)cc23)c(Cl)cc1Cl [Bosutinib],scaled lipid accumulation score,[4],inactive: ≤ -0.016
same,scaled lipid accumulation score,[5],inactive: ≤ -0.016
same,scaled lipid accumulation score,[6],inactive: ≤ -0.016
same,scaled lipid accumulation score,[3],inactive: ≤ -0.016
COc1cc(Nc2c(C#N)cnc3cc(OCCCN4CCN(C)CC4)c(OC)cc23)c(Cl)cc1Cl [Bosutinib (SKI-606) (2 mM)],scaled lipid accumulation score,[6],inactive: 0.096
COc1cc(Nc2c(C#N)cnc3cc(OCCCN4CCN(C)CC4)c(OC)cc23)c(Cl)cc1Cl [Bosutinib (SKI-606)],scaled lipid accumulation score,[2],inactive: 0.374
same,scaled lipid accumulation score,[3],inactive: 0.395
COc1cc(Nc2c(C#N)cnc3cc(OCCCN4CCN(C)CC4)c(OC)cc23)c(Cl)cc1Cl [Bosutinib (SKI-606) (10 mM)],scaled lipid accumulation score,[3],inactive: 0.388
CCCCc1oc2ccc(NS(C)(=O)=O)cc2c1C(=O)c1ccc(OCCCN(CCCC)CCCC)cc1 [Dronedarone HCl],scaled lipid accumulation score,[2],inactive: 0.642
same,scaled lipid accumulation score,[3],inactive: 0.263
Cc1ccc(Nc2cc(-c3cccc(N4C(=O)c5ccccc5C4=O)c3)ncn2)cc1NS(C)(=O)=O,scaled lipid accumulation score,[4],inactive: 0.083
same,scaled lipid accumulation score,[5],inactive: ≤ -0.016
same,scaled lipid accumulation score,[6],inactive: ≤ -0.016
same,scaled lipid accumulation score,[3],inactive: 0.08

# From the supplement of paper PMC9135407
